Test in all cases: native gel or EMSA; nuclear extracts of HeLa cells transfected with IRF8 WT, R83C or R291Q mixed with extracts containing the cofactor; 32P end-labelled double-stranded DNA probe (PSMB8 EICE, TAPASIN ISRE or IL10 AICE), poly(dI:dC), 30 minutes at room temperature; the IRF8/cofactor complex is seen on the DNA probe
The target in one assay is T1, BATF/JUNB (human) (UniProt Q16520+P17275).
T1 sequence 1: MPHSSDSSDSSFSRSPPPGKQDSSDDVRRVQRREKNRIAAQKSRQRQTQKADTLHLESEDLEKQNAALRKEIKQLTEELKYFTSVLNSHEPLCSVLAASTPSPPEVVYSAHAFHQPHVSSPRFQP
T1 sequence 2: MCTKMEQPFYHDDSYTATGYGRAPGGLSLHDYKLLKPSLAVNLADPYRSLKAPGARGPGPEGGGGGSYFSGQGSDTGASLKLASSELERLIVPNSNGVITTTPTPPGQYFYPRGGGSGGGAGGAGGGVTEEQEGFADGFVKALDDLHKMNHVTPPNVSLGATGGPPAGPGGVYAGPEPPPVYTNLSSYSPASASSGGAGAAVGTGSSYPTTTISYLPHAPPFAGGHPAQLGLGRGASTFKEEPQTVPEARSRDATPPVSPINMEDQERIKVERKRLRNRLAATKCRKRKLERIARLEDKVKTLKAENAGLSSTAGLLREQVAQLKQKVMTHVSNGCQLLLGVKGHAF

The chains behind the UniProt entries cited, without tags or fusion partners.
UniProt Q01892: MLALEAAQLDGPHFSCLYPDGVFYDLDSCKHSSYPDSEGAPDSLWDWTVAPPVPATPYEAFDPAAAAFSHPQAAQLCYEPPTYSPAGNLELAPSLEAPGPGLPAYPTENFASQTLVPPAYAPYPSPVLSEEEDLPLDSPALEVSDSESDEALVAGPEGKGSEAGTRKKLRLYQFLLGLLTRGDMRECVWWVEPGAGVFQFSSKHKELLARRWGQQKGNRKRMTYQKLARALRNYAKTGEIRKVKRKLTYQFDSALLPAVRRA

The target in assay [1] is Spi-B transcription factor (SPIB) (human) (UniProt Q01892).
The target of the next assay is T2, IRF1 (human) (UniProt P10914).
T2 sequence: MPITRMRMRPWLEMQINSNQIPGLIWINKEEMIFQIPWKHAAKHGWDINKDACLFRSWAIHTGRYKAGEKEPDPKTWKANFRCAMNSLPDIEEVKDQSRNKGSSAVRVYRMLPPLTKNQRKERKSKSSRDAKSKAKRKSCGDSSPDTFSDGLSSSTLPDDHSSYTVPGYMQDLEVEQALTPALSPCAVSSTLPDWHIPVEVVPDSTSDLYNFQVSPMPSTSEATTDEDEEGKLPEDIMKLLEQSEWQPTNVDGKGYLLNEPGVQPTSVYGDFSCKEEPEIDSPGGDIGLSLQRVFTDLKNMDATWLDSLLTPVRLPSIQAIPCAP

Results are given in words; binding and its absence hold for the method and conditions named. Some binding calls cover weakened binding; strength is not graded here.

B1: interferon regulatory factor 8 (IRF8), wild type (protein, UniProt Q02556 1-426)
chain: MCDRNGGRRLRQWLIEQIDSSMYPGLIWENEEKSMFRIPWKHAGKQDYNQEVDASIFKAWAVFKGKFKEGDKAEPATWKTRLRCALNKSPDFEEVTDRSQLDISEPYKVYRIVPEEEQKCKLGVATAGCVNEVTEMECGRSEIDELIKEPSVDDYMGMIKRSPSPPEACRSQLLPDWWAQQPSTGVPLVTGYTTYDAHHSAFSQMVISFYYGGKLVGQATTTCPEGCRLSLSQPGLPGTKLYGPEGLELVRFPPADAIPSERQRQVTRKLFGHLERGVLLHSSRQGVFVKRLCQGRVFCSGNAVVCKGRPNKLERDEVVQVFDTSQFFRELQQFYNSQGRLPDGRVVLCFGEEFPDMAPLRSKLILVQIEQLYVRQLAEEAGKSCGAGSVMQAPEEPPPDQVFRMFPDICASHQRSFFRENQQITV
On to B1, for which the binding entry (with BATF/JUNB (human); in assay [1]; with IRF1 (human)) was “binds” each time.

B2: interferon regulatory factor 8 (IRF8) R83C (protein, UniProt Q02556 1-426)
chain: MCDRNGGRRLRQWLIEQIDSSMYPGLIWENEEKSMFRIPWKHAGKQDYNQEVDASIFKAWAVFKGKFKEGDKAEPATWKTRLCCALNKSPDFEEVTDRSQLDISEPYKVYRIVPEEEQKCKLGVATAGCVNEVTEMECGRSEIDELIKEPSVDDYMGMIKRSPSPPEACRSQLLPDWWAQQPSTGVPLVTGYTTYDAHHSAFSQMVISFYYGGKLVGQATTTCPEGCRLSLSQPGLPGTKLYGPEGLELVRFPPADAIPSERQRQVTRKLFGHLERGVLLHSSRQGVFVKRLCQGRVFCSGNAVVCKGRPNKLERDEVVQVFDTSQFFRELQQFYNSQGRLPDGRVVLCFGEEFPDMAPLRSKLILVQIEQLYVRQLAEEAGKSCGAGSVMQAPEEPPPDQVFRMFPDICASHQRSFFRENQQITV
As for B2, the binding result (in the assay with BATF/JUNB (human); in assay [1]; with IRF1 (human)) was “no binding” in each case.

B3: interferon regulatory factor 8 (IRF8) R291Q (protein, UniProt Q02556 1-426)
chain: MCDRNGGRRLRQWLIEQIDSSMYPGLIWENEEKSMFRIPWKHAGKQDYNQEVDASIFKAWAVFKGKFKEGDKAEPATWKTRLRCALNKSPDFEEVTDRSQLDISEPYKVYRIVPEEEQKCKLGVATAGCVNEVTEMECGRSEIDELIKEPSVDDYMGMIKRSPSPPEACRSQLLPDWWAQQPSTGVPLVTGYTTYDAHHSAFSQMVISFYYGGKLVGQATTTCPEGCRLSLSQPGLPGTKLYGPEGLELVRFPPADAIPSERQRQVTRKLFGHLERGVLLHSSRQGVFVKQLCQGRVFCSGNAVVCKGRPNKLERDEVVQVFDTSQFFRELQQFYNSQGRLPDGRVVLCFGEEFPDMAPLRSKLILVQIEQLYVRQLAEEAGKSCGAGSVMQAPEEPPPDQVFRMFPDICASHQRSFFRENQQITV
Consider B3, for which the binding result in the assay with BATF/JUNB (human) was “binds”; in assay [1], “no binding”; with IRF1 (human), “no binding”.

Source of the values: article PMC5986711.
